The record followed here is PubChem BioAssay AID463173 (ICCB-Longwood Screening Facility, Harvard Medical School, 2010).

Out of some 52,000 compounds screened, about 4,300 (8.3%) were called active. Rule as the data show it: active = survival mostly below about 52% (no sharp cut-off); inactive = mostly above about 56%. The list shows a part of the results.

The test system of this test is DeltatarO mutant. The test can be described thus: S. aureus survival, RN4220 and DeltatarO strains – OD600, teichoic acid synthesis inhibitors, primary screen (AID 463173). The following applies: S. aureus RN4220 wild type/DeltatarO growth, OD600, 18 h, active compounds read low, screened at 18.75 µg/mL (by protocol).
As to `N=c1n(CCN2CCCCC2)c2ccccc2n1CC(O)COc1ccc(Cl)cc1Cl` (centres undefined), the survival was active: -16%. On to `Cc1ccc(CCNC(=O)c2ccc(CSCc3ccccc3Cl)o2)cc1`, for which the survival was inactive: 87%. On to `Cc1ccc(N(C)S(=O)(=O)c2nnc(NC(=O)C3CCCCC3)s2)cc1`, for which the survival is inactive: 88%. The result for `NNc1nc2sc3c(c2c(=O)[nH]1)CCCC3` reads inactive: 81%; that for `CCc1ccc(CNC(=O)c2cc(-c3ccc(Cl)s3)nc3ccccc23)cc1`, inactive: 83%; that for `O=C(Cc1ccc(NC(=O)N2CCSc3ncccc32)cc1)NCCc1ccccc1`, inactive: 117%. Turning to `CCC(=O)N(CCN1CCOCC1)Cc1cc2cc3c(cc2nc1Cl)OCO3`, the survival is inactive: 78%.

For `COc1ccc(-n2c3c(cc(-c4nc(-c5ccc(Cl)cc5)cs4)c2=O)C(=O)CC(C)(C)C3)cc1`, the survival was inactive: 140%. The result for `CCn1nc(CC(=O)Nc2nnc(CC(=O)N3CCCC3)s2)c2ccccc2c1=O` reads inactive: 101%. In the case of `O=C1c2[nH]nc(-c3ccc(Br)cc3)c2C(c2cccc(O)c2)N1c1ccc(Cl)cc1` (centres undefined), the survival was active: -10%.

For `Cc1ccc2scc(N3CCN(c4ccc(F)cc4)CC3)c(=O)c2c1`, the survival was inactive: 85%. `CC1CCN(C(=O)c2ccc3c(c2)OCCO3)CC1`: the survival was inactive: 96%. The same measure for `COc1ccc(CCNC(=O)c2ccc3c(c2)N(Cc2cccc(Cl)c2)C(=O)CS3)cc1OC`: active: 54%. Consider `COc1ccc(C2c3c(n(C)c4ccccc34)C(=O)N2CC(=O)Nc2ccccc2F)cc1` (centres undefined), for which the survival is inactive: 97%. The result for `O=C(NCc1ccc(Cl)cc1)c1cnc2sc(N3CCCC3)nn2c1=O` reads inactive: 72%. The result for `COc1ccc(Cl)cc1NC(=O)CN(c1cccc(C)c1C)S(=O)(=O)c1ccccc1` reads inactive: 72%; that for `O=C(CC1N=C2c3ccccc3N=C(SCc3ccccc3F)N2C1=O)NCc1ccc2c(c1)OCO2` (centres undefined), inactive: 105%; that for `COc1cc(C)ccc1OCCn1c(-c2ccc(Cl)cc2)nc2ccccc2c1=O`, inactive: 62%.

Take `O=S(=O)(Cc1ccccc1)N1CCCC(c2nc(-c3cccs3)no2)C1` (centres undefined): the survival was inactive: 72%. The result for `COc1ccc2c(c1)sc1ncc(C(=O)NCc3cccc(Cl)c3)c(=O)n12` reads inactive: 67%; that for `Cc1cc(C)c(NC(=O)c2cc(S(=O)(=O)N3CCN(c4ccccc4F)CC3)ccc2F)c(C)c1`, inactive: 73%. The result for `COc1ccc(N2CC(NC(=O)CCc3ccccc3)CC2=O)cc1OC` (centres undefined) reads inactive: 94%; that for `Cc1ccc2oc(=O)n(CCCOc3ccc(Cl)cc3)c2c1`, active: -3%; that for `CCOC(=O)N1CCc2c(sc3c2c(=O)n(-c2ccc(CC)cc2)c(=O)n3CC(=O)Nc2ccc(C)cc2)C1`, inactive: 77%.
